Experimental data taken from the supplement of paper PMC4967469.
Lines with a small IC50 respond at low doses; fits outside the tested doses are given as limits. For AUC the same curve is integrated over the 256-fold range of doses and scaled to a fraction; values near 1 show little effect. For some assays here: The top dose, if marked as inferred, was calculated from the reported fits. For some assays here: Drugs with an entry number were screened twice under separate entries, and the two screens often disagree.

Legend:
Assay in all cases: Viability of human cancer cell lines after 72 h of drug (GDSC screen)
ABT-869 = compound: Cc1ccc(F)c(NC(=O)Nc2ccc(-c3cccc4[nH]nc(N)c34)cc2)c1 [ABT-869]; conditions: top dose 1.024 µM; top dose inferred
Protocol: (§1)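 Human cancer cell lines in 384-well plates, medium with 10% serum, drug for 72 h over a 256-fold dose range (nine 2-fold or five 4-fold steps up to the top dose). Adherent lines were fixed and stained with the nucleic acid dye Syto60, suspension lines read with resazurin; signal relative to control wells, capped at 0 and 100%. One two-parameter sigmoid per drug and line, fitted in a mixed model over all curves with the slope shared within a line.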

(5Z)-7-Oxozeaenol = compound: COc1cc(O)c2c(c1)/C=C/C[C@H](O)[C@H](O)C(=O)/C=C\C[C@H](C)OC2=O [(5Z)-7-Oxozeaenol]; conditions: top dose 10 µM; top dose inferred
Protocol: as §1

GSK269962A = compound: CCn1c(-c2nonc2N)nc2cnc(Oc3cccc(NC(=O)c4ccc(OCCN5CCOCC5)cc4)c3)cc21 [GSK269962A]; conditions: top dose 5 µM; screen: GDSC drug entry 1192; top dose inferred
Protocol: as §1

Zibotentan = compound: COc1nc(C)cnc1NS(=O)(=O)c1cccnc1-c1ccc(-c2nnco2)cc1 [Zibotentan]; conditions: top dose 20 µM; top dose inferred
Protocol: as §1

CHIR-99021 = compound: Cc1cnc(-c2cnc(NCCNc3ccc(C#N)cn3)nc2-c2ccc(Cl)cc2Cl)[nH]1 [CHIR-99021]
Protocol: as §1

QL-X-138 = compound: C=CC(=O)Nc1cc(-n2c(=O)ccc3cnc4ccc(-c5cn[nH]c5)cc4c32)ccc1C [QL-X-138]; conditions: top dose 10.24 µM; top dose inferred
Protocol: as §1

CP466722 = compound: COc1cc2ncnc(-n3nc(-c4ccccn4)nc3N)c2cc1OC [CP466722]; conditions: top dose 16 µM; top dose inferred
Protocol: as §1

ABT-888 = compound: C[C@]1(c2nc3c(C(N)=O)cccc3[nH]2)CCCN1 [ABT-888]; conditions: top dose 5 µM; top dose inferred
Protocol: as §1

MPS-1-IN-1 = compound: COc1cc(N2CCC(O)CC2)ccc1Nc1cc(Nc2ccccc2S(=O)(=O)C(C)C)c2cc[nH]c2n1 [MPS-1-IN-1]; conditions: top dose 20 µM; top dose inferred
Protocol: as §1

Thapsigargin = compound: C/C=C(/C)C(=O)O[C@H]1C(C)=C2[C@H]([C@@H]1OC(=O)CCCCCCC)[C@@](C)(OC(C)=O)C[C@H](OC(=O)CCC)[C@@]1(O)[C@H]2OC(=O)[C@@]1(C)O [Thapsigargin]; conditions: top dose 0.512 µM; top dose inferred
Protocol: as §1

KU-55933 = compound: O=c1cc(-c2cccc3c2Sc2ccccc2S3)oc(N2CCOCC2)c1 [KU-55933]; conditions: top dose 10 µM
Protocol: as §1

[1] = top dose 2.56 µM, screen: GDSC drug entry 154
[2] = top dose 10 µM, screen: GDSC drug entry 1241, top dose inferred

Cell Line	AUC (ABT-869)	IC50 (ABT-869) [nM]	AUC ((5Z)-7-Oxozeaenol)	IC50 ((5Z)-7-Oxozeaenol) [nM]	AUC (GSK269962A)	IC50 (GSK269962A) [µM]	AUC (Zibotentan)	IC50 (Zibotentan) [µM]	AUC (CHIR-99021; [1])	IC50 (CHIR-99021; [1]) [µM]	AUC (CHIR-99021; [2])	IC50 (CHIR-99021; [2]) [µM]	AUC (QL-X-138)	IC50 (QL-X-138) [µM]	AUC (CP466722)	IC50 (CP466722) [µM]	AUC (ABT-888)	IC50 (ABT-888) [µM]	AUC (MPS-1-IN-1)	IC50 (MPS-1-IN-1) [µM]	AUC (Thapsigargin)	IC50 (Thapsigargin) [nM]	AUC (KU-55933)	IC50 (KU-55933) [µM]
ABC-1 (lung adenocarcinoma, adherent)	0.966	> 1020	0.694	2470	0.833	4.2	0.971	> 20	0.983	> 2.56	0.98	> 10	0.627	1.55	0.784	8.35	0.963	> 5	0.847	19.6	0.143	< 2	–	–
ACHN (kidney, adherent)	0.98	> 1020	0.67	2000	0.885	> 5	0.981	> 20	0.918	> 2.56	0.876	> 10	0.874	> 10.2	0.817	10.6	0.979	> 5	0.953	> 20	0.441	21.6	–	–
CAKI-1 (kidney, adherent)	0.961	> 1020	0.672	2410	0.809	4.42	0.972	> 20	0.899	> 2.56	0.973	> 10	0.811	9.21	0.699	4.85	0.945	> 5	0.957	> 20	0.631	88.5	–	–
FLO-1 (oesophagus, adherent)	0.967	> 1020	0.669	2290	0.937	> 5	0.972	> 20	–	–	0.837	> 10	0.745	4.52	0.7	4.75	0.976	> 5	0.934	> 20	–	–	0.932	> 10
G-MEL (melanoma, adherent)	0.984	> 1020	0.059	< 39.1	0.813	2.65	0.986	> 20	0.986	> 2.56	0.899	> 10	0.582	1.07	0.826	9.51	0.933	> 5	0.94	> 20	0.535	39.9	–	–
HMV-II (melanoma, adherent)	0.974	> 1020	0.336	197	0.901	> 5	0.978	> 20	0.913	> 2.56	0.926	> 10	0.728	3.35	0.979	> 16	0.973	> 5	0.894	> 20	0.279	6.46	–	–
HOP-92 (large cell lung carcinoma, adherent)	0.98	> 1020	0.487	572	0.663	0.961	0.984	> 20	0.971	> 2.56	0.925	> 10	0.984	> 10.2	0.95	> 16	0.978	> 5	0.984	> 20	0.207	3.72	–	–
HSC-4 (head and neck, adherent)	0.977	> 1020	0.498	617	0.803	3.51	0.979	> 20	0.979	> 2.56	0.927	> 10	0.757	4.65	0.896	> 16	0.967	> 5	0.968	> 20	0.755	228	–	–
HT-29 (large intestine, adherent)	0.971	> 1020	0.567	954	0.908	> 5	0.987	> 20	0.981	> 2.56	0.959	> 10	0.756	3.5	–	–	0.988	> 5	0.832	12.7	0.201	4.19	–	–
HeLa (cervix, adherent)	0.982	> 1020	0.644	1530	0.791	2.13	0.989	> 20	0.968	> 2.56	0.988	> 10	0.952	> 10.2	0.902	> 16	0.977	> 5	0.957	> 20	0.214	4.87	–	–
Hs-578-T (breast, adherent)	0.987	> 1020	0.727	2900	0.856	4.43	0.987	> 20	0.977	> 2.56	0.881	> 10	0.952	> 10.2	0.987	> 16	0.987	> 5	0.987	> 20	–	–	0.895	> 10
IGROV-1 (ovary, adherent)	–	–	0.718	3510	0.896	> 5	–	–	–	–	0.944	> 10	–	–	–	–	0.976	> 5	–	–	–	–	0.942	> 10
JEKO-1 (B-cell lymphoma, suspension)	–	–	0.581	1030	0.698	1.09	–	–	–	–	0.833	6.07	–	–	–	–	0.975	> 5	–	–	–	–	0.741	2.94
JHOS-2 (ovary, adherent)	0.983	> 1020	0.54	818	0.954	> 5	0.983	> 20	–	–	0.869	> 10	0.858	> 10.2	0.768	6.94	0.971	> 5	0.931	> 20	–	–	0.878	> 10
KARPAS-1106P (B-cell lymphoma, suspension)	–	–	0.857	5960	0.989	> 5	–	–	–	–	0.993	> 10	–	–	–	–	0.992	> 5	–	–	–	–	0.953	> 10
MCF7 (breast, adherent)	0.982	> 1020	0.746	3280	0.844	3.8	0.986	> 20	0.954	> 2.56	0.859	8.78	0.985	> 10.2	–	–	0.986	> 5	0.986	> 20	0.046	< 2	–	–
MOLM-16 (acute myeloid leukaemia, suspension)	–	–	0.592	1080	0.769	1.67	–	–	–	–	0.809	4.46	–	–	–	–	0.961	> 5	–	–	–	–	0.843	5.85
NCI-H292 (lung adenocarcinoma, adherent)	0.977	> 1020	0.512	678	0.635	0.802	0.975	> 20	0.978	> 2.56	0.95	> 10	0.978	> 10.2	0.771	7.49	0.975	> 5	0.705	5.42	0.387	14.6	–	–
NCI-H441 (lung adenocarcinoma, adherent)	0.98	> 1020	0.771	5480	0.954	> 5	0.979	> 20	0.971	> 2.56	0.975	> 10	0.964	> 10.2	0.957	> 16	0.981	> 5	0.978	> 20	0.324	8.38	–	–
NCI-H929 (myeloma, suspension)	–	–	0.45	466	0.916	> 5	–	–	–	–	0.903	9.77	–	–	–	–	0.973	> 5	–	–	–	–	0.903	9.77
NCI-H1734 (lung adenocarcinoma, adherent)	0.98	> 1020	–	–	–	–	0.985	> 20	–	–	–	–	0.807	5.9	0.874	> 16	0.98	> 5	0.927	> 20	0.27	6.58	–	–
OV-56 (ovary, adherent)	0.988	> 1020	0.681	1950	0.973	> 5	0.989	> 20	–	–	0.926	> 10	0.853	7.53	0.843	10.7	0.988	> 5	0.946	> 20	–	–	0.959	> 10
OVCA433 (ovary, adherent)	0.976	> 1020	0.388	296	0.668	0.975	0.981	> 20	–	–	0.878	> 10	0.815	6.45	0.915	> 16	0.985	> 5	0.971	> 20	–	–	0.951	> 10
SK-MEL-24 (melanoma, adherent)	0.983	> 1020	0.366	246	0.882	> 5	0.98	> 20	0.983	> 2.56	0.911	> 10	0.983	> 10.2	0.98	> 16	0.977	> 5	0.803	12.6	0.95	> 512	–	–
U251 (glioma, adherent)	0.983	> 1020	0.698	2190	0.906	> 5	0.982	> 20	0.987	> 2.56	0.985	> 10	0.594	1.14	0.788	6.69	0.986	> 5	0.848	13.9	0.229	5.48	–	–
U-2-OS (osteosarcoma, adherent)	0.971	> 1020	0.55	867	0.879	> 5	0.98	> 20	0.913	> 2.56	0.943	> 10	0.976	> 10.2	0.952	> 16	0.977	> 5	–	–	0.501	32.1	–	–
UM-UC-3 (bladder, adherent)	0.985	> 1020	0.61	1230	0.885	4.87	0.977	> 20	0.981	> 2.56	0.934	> 10	0.713	2.44	0.75	4.95	0.988	> 5	0.797	8.8	0.214	4.96	–	–
